According to the supplement of paper PMC3334620:
In all, about 33,000 sequences were measured (“E-score (-0.5 to 0.5)”: median about -0.043, highest 2% from about 0.37 on). Some of the results follow.

Each sequence was assayed against T1, Upc2 (UniProt Q12151) (assay: PBM E-score (8-mer binding enrichment) (E-score (-0.5 to 0.5)); higher = stronger / more preferred TF binding; most listed sequences are background and not binding sites). Conditions: protein concentration: 200 nM; construct: GST-full length.
T1 sequence: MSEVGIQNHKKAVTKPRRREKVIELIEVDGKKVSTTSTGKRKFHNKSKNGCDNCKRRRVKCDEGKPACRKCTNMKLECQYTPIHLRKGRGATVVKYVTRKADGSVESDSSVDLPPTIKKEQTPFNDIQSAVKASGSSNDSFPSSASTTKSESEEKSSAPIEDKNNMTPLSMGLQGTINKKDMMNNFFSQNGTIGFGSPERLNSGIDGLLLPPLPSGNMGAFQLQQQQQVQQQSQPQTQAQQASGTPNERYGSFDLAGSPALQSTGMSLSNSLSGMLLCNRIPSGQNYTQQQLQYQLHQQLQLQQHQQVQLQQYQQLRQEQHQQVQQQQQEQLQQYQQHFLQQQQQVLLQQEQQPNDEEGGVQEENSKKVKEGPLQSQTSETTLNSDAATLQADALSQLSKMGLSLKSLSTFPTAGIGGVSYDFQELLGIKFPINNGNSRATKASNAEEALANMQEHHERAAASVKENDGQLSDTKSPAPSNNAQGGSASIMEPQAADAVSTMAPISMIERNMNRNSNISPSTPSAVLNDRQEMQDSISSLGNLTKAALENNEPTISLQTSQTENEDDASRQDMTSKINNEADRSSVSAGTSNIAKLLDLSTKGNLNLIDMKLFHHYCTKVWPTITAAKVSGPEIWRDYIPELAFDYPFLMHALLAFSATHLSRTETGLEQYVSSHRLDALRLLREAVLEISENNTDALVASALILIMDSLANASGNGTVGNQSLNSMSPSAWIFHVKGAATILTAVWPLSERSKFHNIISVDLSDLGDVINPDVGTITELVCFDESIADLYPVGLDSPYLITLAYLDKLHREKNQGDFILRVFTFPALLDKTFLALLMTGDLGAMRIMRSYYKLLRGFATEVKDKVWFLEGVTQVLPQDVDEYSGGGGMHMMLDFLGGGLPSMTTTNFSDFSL
Method in brief: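 PURExpress in vitro transcription/translation supplied GST-tagged yeast transcription factors, either full-length or DNA-binding domain. Applied at about 100-200 nM to universal all-10-mer Agilent arrays double-stranded by primer extension, the bound protein was detected with fluorescent anti-GST. E-scores, modified Wilcoxon-Mann-Whitney statistics, were given by the Universal PBM Analysis Suite to ungapped eight-base words pooled with their reverse complements after masliner normalisation.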

| Sequence | PBM E-score |
| --- | --- |
| AAATTGTT | -0.0484 |
| CCACGCAC | -0.152 |
| ATATGGTC | 0.116 |
| ATCTGCCA | -0.132 |
| CTCGCTTA | 0.423 |
| ATACCTCG | 0.18 |
| CCTATCGC | -0.049 |
| AAGCGGGC | -0.0233 |
| AAGTCGCA | 0.193 |
| CCATAAGC | -0.161 |
| AGACGGCA | -0.162 |
| ATGGCGCC | -0.194 |
| AATCGCGA | 0.189 |
| TATGTCAA | 0.0594 |
| CCGATCCG | 0.0946 |
| ACTCGACC | -0.0381 |
| ATAGATAA | 0.0449 |
| CACTGTAG | 0.0248 |
| CAGCACTG | -0.255 |
| GGCAAGGA | -0.205 |
| CCGGTAAA | 0.0784 |
| AAGAGAGC | -0.107 |
| GATTGACA | -0.0586 |
| AGGGTCTG | -0.308 |
| AGTCTAAT | -0.11 |

| Sequence | PBM E-score |
| --- | --- |
| CAGACCAG | -0.0598 |
| CCTGTGCA | 0.00225 |
| AGACATTC | -0.073 |
| CCAAAGAA | -0.083 |
| AGAGCGCC | -0.0864 |
| AGTACCGA | -0.0766 |
| GCCACAAC | -0.0129 |
| CCACAGGC | -0.376 |
| AGCCATCG | 0.0752 |
| GACTGATC | -0.118 |
| AAGCCCGC | -0.0467 |
| ACGAGCCA | 0.408 |
| GATTGACC | -0.102 |
| ACGAGGAG | 0.306 |
| AAGTGGGC | 0.131 |
| AAAAGTTT | 0.0687 |
| CGACCTCA | 0.00368 |
| CCCTACGA | 0.245 |
| ATGAACCA | -0.124 |
| ATCAGCAT | -0.191 |
| CCCAGAGA | -0.123 |
| AATATACC | -0.0163 |
| ACCATACC | -0.0989 |
| CATGTGTC | -0.0516 |
| CAACATTA | -0.0706 |

| Sequence | PBM E-score |
| --- | --- |
| ATACCAAG | -0.0264 |
| ACGTCGAC | 0.118 |
| ACCACTCT | -0.125 |
| ACTCCTAC | -0.179 |
| AGACTCGG | -0.222 |
| CTGCCCAC | -0.198 |
| GCATAAGC | -0.043 |
| CCGTGGAA | -0.176 |
| CCTGGCAG | -0.198 |
| CCCTAACC | -0.165 |
| TATGCTGA | -0.124 |
| ACTGCAAA | -0.072 |
| TGCGAGAA | 0.129 |
| CCTACTAA | -0.14 |
| ACTTATCG | 0.00736 |
| CCGGTTCC | -0.144 |
| CGAGCCCG | 0.131 |
| TAACTGAA | -0.0941 |
| TTAGAAAA | -0.129 |
| ACTTTTCG | 0.194 |
| CTGAGCTA | -0.0866 |
| GCAGTGCA | -0.0741 |
| ACCACGGA | -0.185 |
| CACTTGTA | -0.0805 |
| GTCAGCTA | -0.0445 |

| Sequence | PBM E-score |
| --- | --- |
| GTATGGCA | 0.185 |
| CAGTATCA | -0.137 |
| ATGCCACG | -0.18 |
| CAGTTCAC | -0.0317 |
| AGAGGCAC | -0.00593 |
| CACACAAA | 0.0375 |
| GTGCGCGA | 0.0402 |
| ATTAACAG | 0.0176 |
| ATATTGTG | -0.104 |
| TAAATATA | 0.137 |
| ACTGGCCT | 0.0362 |
| GCTTGGCA | -0.0392 |
| ACGACAAG | 0.277 |
| GACAGTCC | -0.17 |
| CTTCGAGA | -0.233 |
| GTCAAAAA | -0.0745 |
| AAAGTGAC | -0.128 |
| CCTAGTCA | -0.0767 |
| AGGTACGG | 0.354 |
| ACAGGCGG | -0.0908 |
| CAGAGTAG | -0.0468 |
| ATGACATG | -0.142 |
| CGCTGATA | 0.0257 |
| ACGGCTGG | 0.00912 |
| CTATGCTC | -0.166 |

| Sequence | PBM E-score |
| --- | --- |
| ATTAGGGA | -0.205 |
| AAACGCTG | 0.244 |
| AAGGTGTC | -0.113 |
| ACGGTAGT | 0.0261 |
| AATAGGGG | -0.0823 |
| CGCAGGAG | -0.193 |
| GCCCACAC | -0.263 |
| TGCGGCAA | -0.127 |
| GTAACCAC | 0.0237 |
| CATACTTC | -0.219 |
| CTTCCTTC | -0.129 |
| AGAAAGAT | 0.0673 |
| ATGCAGAA | -0.0454 |
| GCAGTAAA | -0.0405 |
| AGTTTTCC | 0.221 |
| AGCTTAAC | 0.082 |
| GCTGGCTA | -0.127 |
| CCAGCGGG | -0.279 |
| ATATGTAG | -0.299 |
| AAAACACG | 0.0627 |
| ATGTGCAG | -0.211 |
| CCTAGGGC | -0.357 |
| ATTATTAC | 0.018 |
| CATGAATG | -0.14 |
| ATATCATG | -0.171 |

| Sequence | PBM E-score |
| --- | --- |
| CCTTCTAA | -0.188 |
| CGAATACA | 0.0785 |
| AAAACGGC | 0.102 |
| CGGAACAA | 0.0835 |
| CGTGGGCC | -0.181 |
| AGCAAAAT | 0.101 |
| CTGGACGA | -0.248 |
| AGCTTCTC | 0.119 |
| GGTGGCGA | 0.0876 |
| CACATACC | -0.12 |
| GAACTTAC | 0.0659 |
| GTCACGAA | 0.014 |
| CGGACAAA | 0.0814 |
| AGTCGGTC | 0.145 |
| AATGTTAC | 0.13 |
| CGGTCTTA | 0.125 |
| CAGTGAGA | -0.243 |
| TCCAAACA | -0.213 |
| CGCTTTTC | 0.104 |
| GACAAGAC | 0.00471 |
| AACGTTGT | 0.184 |
| CGAAGACG | -0.00194 |
| CGATGTGA | 0.14 |
| ATACCTGG | -0.219 |
| ATCTTGAA | -0.141 |

| Sequence | PBM E-score |
| --- | --- |
| AGGGTACA | -0.0634 |
| ACAGGGTC | -0.134 |
| CGTCTTAA | 0.18 |
| GTTTATGA | 0.137 |
| CTCTGGCA | -0.24 |
| CTTTTACC | 0.113 |
| TTCTTCAA | -0.0112 |
| AATCAGCC | -0.0548 |
| TAAGATAA | 0.0173 |
| CTGTTGTC | -0.103 |
| ATAAGCTA | -0.0833 |
| CGCCAGTC | -0.0455 |
| ACTTGCAG | -0.103 |
| CTTAACCC | -0.121 |
| TTGAAAAA | -0.0218 |
| AAAGTCTT | -0.0887 |
| ACTCTACT | 0.0626 |
| ACGACGAA | 0.375 |
| AGAGAAGA | 0.0763 |
| CCCCCAGA | -0.198 |
| ATTGCGTC | -0.199 |
| CACCCAAC | -0.0957 |
